# Source: PubChem BioAssay AID2675 (National Center for Advancing Translational Sciences (NCATS), 2010)
# Out of some 280,000 compounds screened, about 100 (0.036%) were called active. This list was built around the results that the source calls inconclusive (neither active nor inactive); the mix of calls is not that of the screen. Calls follow the shape of the dose curve; as a rule, active = well fitted inhibition curve with a large enough effect in the signal ratio, with a control signal flat (not every such curve was filed as active); inconclusive = small, poorly fitted or top-dose-only effect, or effect the other way, or a change in a side signal; inactive = no such curve, though single readings can be large or run the other way; the % refers to the signal ratio. A potency beside an inconclusive call is a rough fit, not a confirmed value. “Side channel” marks fits to a control or component signal instead of the main read-out.
# Target: Muscleblind-like protein 1 (Homo sapiens) (UniProt Q9NR56)
# Chain of UniProt Q9NR56 (Q9NR56 whole entry, looked up): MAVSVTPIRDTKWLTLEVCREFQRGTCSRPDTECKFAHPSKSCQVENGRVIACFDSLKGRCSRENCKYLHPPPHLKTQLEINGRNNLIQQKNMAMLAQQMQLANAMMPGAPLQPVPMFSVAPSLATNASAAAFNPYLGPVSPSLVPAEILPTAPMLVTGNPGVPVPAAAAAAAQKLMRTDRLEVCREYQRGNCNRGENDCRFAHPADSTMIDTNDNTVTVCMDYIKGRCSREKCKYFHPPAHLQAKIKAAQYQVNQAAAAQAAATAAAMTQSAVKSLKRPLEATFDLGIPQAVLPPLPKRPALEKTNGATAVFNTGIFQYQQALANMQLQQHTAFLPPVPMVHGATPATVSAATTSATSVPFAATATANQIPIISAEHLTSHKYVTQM
# Assay: qHTS Assay for Inhibitors of MBNL1-poly(CUG) RNA binding
# Details: TR-FRET MBNL1-His/biotin-(CUG)12 binding, 665/545 ratio; series mostly up to 57.5 µM
# How it was run: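 His-tagged MBNL1 binding to biotinylated (CUG)12 RNA was measured by TR-FRET using terbium anti-His antibody (0.055 ng/ul final) and streptavidin-XL665 (5 nM final). Compounds were titrated 92 nM to 58 uM; 60 min at room temperature.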
# Potency is read from the fitted curve at half-maximal effect; tags tell the direction and shape of the fitted curve or compound fluorescence and quenching.
row,SMILES,Potency
1,COC(=O)c1ccccc1NS(=O)(=O)c1ccc(F)cc1,inactive
2,CCOC(=O)C1CCN(CCC(=O)Nc2ccccc2Cl)CC1,inactive
3,CCOC(=O)C1=C(O)/C(=C/c2ccc(OCC(=O)O)c(OC)c2)SC1=Nc1ccc(OC)cc1,"inconclusive: 8.91 µM [quencher, side channel, partial curve]"
4,O=C(Nc1ccccc1)C12CC3CC(C1)CC(n1cnc([N+](=O)[O-])n1)(C3)C2,"inconclusive: 28.2 µM [quencher, side channel, single point]"
5,CC(C)(C)c1ccc(OCC(O)CSc2ncn[nH]2)cc1 (stereo unspecified),inactive
6,NNC(=O)/C(=C\c1cccs1)NC(=O)c1ccccc1,"inconclusive: 14.1 µM [quencher, side channel, single point]"
7,O=C(O)c1cc2c(s1)-c1ccccc1OC2,"inconclusive: 31.6 µM [quencher, side channel, partial curve, poor fit]"
8,CCOC(=O)c1csc(NC(=O)COc2ccc(Cl)cc2Cl)n1,"inconclusive: 100 µM [inhibitor, single point]"
9,CC1CN(c2ccc(C(F)(F)F)cc2[N+](=O)[O-])CCN1S(C)(=O)=O (stereo unspecified),"inconclusive: 22.4 µM [quencher, partial curve, poor fit]"
10,O=C(Nc1ccc2ncccc2c1)c1ccccc1,inactive
11,CC(C(=O)NCC1CCCO1)c1ccc([N+](=O)[O-])cc1 (stereo unspecified),"inconclusive: 14.1 µM [quencher, side channel, partial curve]"
12,CC(C)CC(=O)O/N=C1\C(=O)N(Cc2ccc(Cl)cc2)c2ccc([N+](=O)[O-])cc21,"inconclusive: 15.8 µM [quencher, side channel, partial curve]"
13,Cc1ccc(N=Cc2sc(O)c3ccccc23)cc1,"inconclusive: 35.5 µM [quencher, side channel, single point]"
14,FC(F)(F)c1cc(Cl)c2nnc(-c3cccnc3)n2c1,inactive
15,CC(C)CCN1C(=O)c2ccc(C(=O)Nc3ccccc3C(=O)O)cc2C1=O,"inconclusive: 20 µM [quencher, side channel, single point]"
16,CCOC(=O)[C@H]1[C@H]2COc3cc(OC)ccc3[C@@H]2N2C(=O)N(c3ccc(Br)cc3)C(=O)[C@@]12C,"inconclusive: 0.631 µM [fluorescent, side channel, single point]"
17,COC(=O)C1CCN(c2ccc(C(N)=O)cc2[N+](=O)[O-])CC1,"inconclusive: 56.2 µM [quencher, side channel, partial curve, poor fit]"
18,O=C(N=Nc1c(O)[nH]c2ccc([N+](=O)[O-])cc12)c1ccccc1[N+](=O)[O-],"inconclusive: 12.6 µM [quencher, side channel, partial curve]"
19,O=[N+]([O-])c1ccc(N/N=C/c2c[nH]c3ccccc23)cc1,"inconclusive: 17.8 µM [quencher, side channel, single point]"
20,CC(=O)c1c(N2CCOCC2)nc(=S)n(-c2ccc([N+](=O)[O-])cc2)c1C,"inconclusive: 28.2 µM [quencher, side channel, partial curve]"
21,COc1ccc(N2CCN(C(=O)c3ccc(F)cc3)CC2)c([N+](=O)[O-])c1,"inconclusive: 15.8 µM [quencher, side channel, partial curve]"

row,SMILES,Potency
1,CCCCNC(=O)C1C2C=CC(C2)C1C(=O)O (stereo unspecified),"inconclusive: 8.91 µM [quencher, side channel, single point]"
2,O=[N+]([O-])c1ccc(N2CCCC2)nc1N1CCCC1,"inconclusive: 25.1 µM [quencher, side channel, partial curve]"
3,O=C(c1cccc(Oc2ccc([N+](=O)[O-])cc2)c1)N1CCOCC1,"inconclusive: 25.1 µM [quencher, partial curve, poor fit]"
4,CN1CCN(C(=O)c2ccc(Oc3ccc([N+](=O)[O-])cc3)cc2)CC1,"inconclusive: 6.31 µM [quencher, side channel, partial curve]"
5,CC(C)COc1cccc(-c2cc(C(=O)Nc3ccon3)c3ccccc3n2)c1,inactive
6,O=C1NC(c2ccc(Cl)c([N+](=O)[O-])c2)Nc2ccccc21 (stereo unspecified),"inconclusive: 28.2 µM [quencher, single point]"
7,CCCc1ccc2c(N)c(C#N)sc2n1,"inconclusive: 15.8 µM [quencher, side channel, partial curve]"
8,Cc1ccccc1NCC(=O)N/N=C\C=C\c1cccc([N+](=O)[O-])c1,"inconclusive: 12.6 µM [quencher, side channel, partial curve]"
9,S=C(NCc1ccccc1)Nc1cccc2cnccc12,"inconclusive: 44.7 µM [quencher, side channel, partial curve, poor fit]"
10,Cn1cccc1C(=O)c1cccc([N+](=O)[O-])c1,"inconclusive: 20 µM [quencher, side channel, partial curve]"
11,O=c1[nH]c(Cc2ccc(F)cc2)nc2scc(-c3ccc(F)cc3)c12,inactive
12,COc1cc(CNCCNC(=O)c2nonc2N)ccc1OCc1ccc(Cl)nc1,inactive
13,CCCOc1ccc(/C=N/NC(=O)CN2CCCCC2)cc1,"inconclusive: 31.6 µM [quencher, side channel, single point]"
14,CCOc1ccc(OCC)c(C2C(C#N)=C(N)N(c3cccnc3)C3=C2C(=O)CC(C)(C)C3)c1 (stereo unspecified),"inconclusive: 20 µM [quencher, side channel, single point]"
15,O=C(NCC1CC1)c1ccc2c3n(nc2c1)-c1ccccc1CO3,"inconclusive: 31.6 µM [quencher, side channel, partial curve]"
16,COc1ccccc1/C=C/C=N/NC(=O)CCn1nnc2ccccc21,"inconclusive: 2.82 µM [quencher, side channel, single point]"
17,C/C(=N\NC(=O)c1cc(Br)ccc1O)c1cccc(NC(=O)c2ccccc2F)c1,inactive
18,O=C1CCCC2=C1C(c1ccco1)Nc1ccc(C(=O)c3ccccc3)cc1N2 (stereo unspecified),"inconclusive: 15.8 µM [quencher, side channel, partial curve]"
19,Cc1ccc2c(c1)cc(CN(Cc1ccc3c(c1)OCO3)C(=O)c1cnccn1)c1nnnn12,inactive
20,S=c1[nH]nc(Cc2ccccc2)n1-c1ccccc1,inactive
21,O=C(NNC(=O)c1ccc2ccccc2c1O)c1cccs1,inactive

row,SMILES,Potency
1,O=C(O)Cn1c2ccccc2c2n[nH]c(=S)nc21,"inconclusive: 25.1 µM [quencher, side channel, partial curve]"
2,O=C(COc1ccccc1[N+](=O)[O-])NNC(=O)Nc1cccc2ccccc12,"inconclusive: 8.91 µM [quencher, side channel, partial curve]"
3,CCC/C=N/NC(=O)c1[nH]c2c([N+](=O)[O-])cccc2c1C,"inconclusive: 25.1 µM [quencher, side channel, partial curve, poor fit]"
4,C=CCN(CC=C)C(=O)c1cc(Cl)ccc1[N+](=O)[O-],"inconclusive: 20 µM [quencher, side channel, single point]"
5,CCN(CC)c1ccc2cc(-c3nnc(-c4ccncc4)o3)c(=O)oc2c1,"inconclusive: 1.78 µM [quencher, side channel, full curve]"
6,O=C(O)c1cccc(Cn2cc(Cl)cn2)c1,inactive
7,Cn1c2ccccc2c(=O)c2ccc(C#Cc3ccc(N)cc3)cc21,"inconclusive: 12.6 µM [quencher, side channel, partial curve]"
8,O=S1(=O)CCC(NC(=S)N2CCCCCC2)C1 (stereo unspecified),"inconclusive: 0.251 µM [fluorescent, side channel, full curve]"
9,Cc1nnc(N2C(=O)C(O)=C(C(=O)c3ccco3)C2c2ccc(F)cc2)s1 (stereo unspecified),"inconclusive: 39.8 µM [quencher, side channel, partial curve, poor fit]"
10,O=C(O)/C=C/C(=O)Nc1cccc2cccnc12,"inconclusive: 20 µM [quencher, side channel, partial curve]"
11,O=C(Nc1nccs1)c1cc([N+](=O)[O-])ccc1Cl,"inconclusive: 14.1 µM [quencher, side channel, partial curve]"
12,Cc1cc(Oc2nc3ccccn3c(=O)c2/C=C(\C#N)C(=O)NC2CCS(=O)(=O)C2)ccc1Cl (stereo unspecified),"inconclusive: 12.6 µM [quencher, side channel, partial curve]"
13,CCN(CC)CCNC(=O)c1ccc(CS(=O)(=O)c2ccccc2C)o1,inactive
14,COc1ccc(-c2ncc3ccccn23)cc1OC,"inconclusive: 20 µM [quencher, side channel, partial curve]"
15,CCOC(=O)c1c(C=O)c2sc(C)cc2n1C,"inconclusive: 31.6 µM [quencher, side channel, partial curve]"
16,NC(=O)c1cc(-c2ccncc2)nc2ccc(Cl)cc12,"inconclusive: 7.94 µM [quencher, side channel, partial curve]"
17,O=C(O)c1ccc2cccc(Cl)c2c1O,inactive
18,COc1ccc2[nH]c3nc(SCC(=O)NC4CC4)nnc3c2c1,"inconclusive: 2.82 µM [quencher, side channel, full curve]"
19,Cc1nc(CCNC(=O)Cc2ccc(Cl)cc2)cs1,"inconclusive: 0.891 µM [quencher, side channel, single point]"
